The experiment deals with SARS-CoV-2 Spike Protein (RBD)(R319-F541).mmH (SARS-CoV-2). The experiment is described as follows: Luminex, supernatant. The note with it: remark: other sources report otherwise.

The results in this text go back to patent US20240043504A1.

Values joined by “and” are separate entries in the source; they are usually repeats but may differ in a detail not shown here. Equal entries are not always repeated.

B1: mAb10915 (antibody)
heavy: EVQLVESGGGLVQPGGSLRLSCAASGFTVSSNYMNWVRQAPGKGLEWVSVIYSGGSTFYADSVKGRFTISRHNSKNTLYLQMNSLRPEDTAVYYCARDLGGYFDYWGQGTLVTVSS[human IgG1 constant region left out]
light: [about 100 residues left out][about 120 residues left out]
Consider B1, for which the MFI was 31800 MFI and 30300 MFI.

B2: mAb10965 (antibody)
heavy: EVQLVESGGGLIQPGGSLRLSCAASVFTVSYNYMSWVRQAPGKGLEWVSVIYSGGSTYYADSVKGRFTISRDNSKNTLYLQMNSLRAEDTAVYYCARALPGWGGSFEYFDYWGQGTLVTVSS[human IgG1 constant region left out]
light: [about 100 residues left out][about 100 residues left out]
Turning to B2, the MFI was 30800 MFI and 26900 MFI.

B3: mAb10939 (antibody)
heavy: EVQLVESGGGLVQPGGSLRLSCAASGLTVSSNYMNWVRQVPGKGLEWVSVIYSGGSKFYVDSVKGRFTISRHNSKNTLYLQMNSLRPEDTAVYYCTRDAQYYGMDVWGQGTTVTVSS[human IgG1 constant region left out]
light: DIQMTQSPSSLSASVGDRVTITCRASQSISTYLHWYQQKPGEAPKLLIYAASSLQSGVPSRFSGSGSGTDFTLTISSLQPEDFATYYCQQSYSTPPEIFGQGTKLEIKRTVAAPSVFIFPPSDEQLKSGTASVVCLLNNFYPREAKVQWKVDNALQSGNSQESVTEQDSKDSTYSLSSTLTLSKADYEKHKVYACEVTHQGLSSPVTKSFNRGEC
As to B3, the MFI was 32200 MFI and 30900 MFI.

B4: mAb10984 (antibody)
heavy: EVQLVESGGGLVQPGGSLRLSCAASGLTVNRNYMSWVRQAPGKGLEWVSLIYSGGSTYYADSVKGRFTISRDNSKNTLYLQMNSLRLEDTAVYYCARGELGIPYGMDVWGQGTTVTVSS[human IgG1 constant region left out]
light: QSVLTQPPSVSAAPGQKVTISCSGSSSNIGNNYVSWYQQLPGTAPKLLIYDNNKRPSGIPDRFSGSKSGTSATLGITGLQTGDEADYYCGTWDSSLSAGVFGGGTKLTVLGQPKAAPSVTLFPPSSEELQANKATLVCLISDFYPGAVTVAWKADSSPVKAGVETTTPSKQSNNKYAASSYLSLTPEQWKSHRSYSCQVTHEGSTVEKTVAPTECS
On to B4, for which the MFI was 27900 MFI and 26200 MFI.

B5: mAb10982 (antibody)
heavy: EVQLVESGGGLVQPGGSLRLSCAASGLTVSSNYMSWVRQAPGKGLEWVSVIYSGGTTYYADSVKGRFTISRHNSKNTLSLQMNSLRAEDTAVYYCARGEGANYYGMDVWGQGTTVTVSS[human IgG1 constant region left out]
light: QSVLTQPPSVSGAPGQRVTISCTGSSSNIGTGYDVHWYQQLPGTAPKLLIYGNSNRPSGVPDRFSGSKSGTSASLAITGLQAEDEADYYCQSYDSSLSGYVVFGGGTKLTVLGQPKAAPSVTLFPPSSEELQANKATLVCLISDFYPGAVTVAWKADSSPVKAGVETTTPSKQSNNKYAASSYLSLTPEQWKSHRSYSCQVTHEGSTVEKTVAPTECS
Turning to B5, the MFI is 24300 MFI and 22200 MFI.

B6: mAb10985 (antibody)
heavy: EVQLVESGGGLVQPGRSLRLSCAASGFTFDDYAMHWVRQAPGKGLEWVSGISWNRGSIGYADSVKGRFTISRDNAKNSLYLQMSSLRAEDTALYYCAKDGERWDSVVVPSARNGMDVWGQGTTVTVSS[human IgG1 constant region left out]
light: QSVLTQPPSVSGAPGQRVTISCTGSSSNIGAGYDVHWYQQLPGTAPKLLIYGNSNRPSGVPDRFSGSKSGTSASLAITGLQAEDEADYYCQSYDSSLSGSYVFGTGTKVTVLGQPKAAPSVTLFPPSSEELQANKATLVCLISDFYPGAVTVAWKADSSPVKAGVETTTPSKQSNNKYAASSYLSLTPEQWKSHRSYSCQVTHEGSTVEKTVAPTECS
On to B6, for which the MFI was 30200 MFI and 27900 MFI.

B7: mAb10989 (antibody)
heavy: QVQLVQSGAEVKKPGASVKVSCKASGYIFTGYYMHWVRQAPGQGLEWMGWINPNSGGANYAQKFQGRVTLTRDTSITTVYMELSRLRFDDTAVYYCARGSRYDWNQNNWFDPWGQGTLVTVSS[human IgG1 constant region left out]
light: QSALTQPASVSGSPGQSITISCTGTSSDVGTYNYVSWYQQHPGKAPKLMIFDVSNRPSGVSDRFSGSKSGNTASLTISGLQAEDEADYYCSSFTTSSTVVFGGGTKLTVLGQPKAAPSVTLFPPSSEELQANKATLVCLISDFYPGAVTVAWKADSSPVKAGVETTTPSKQSNNKYAASSYLSLTPEQWKSHRSYSCQVTHEGSTVEKTVAPTECS
Take B7: the MFI is 17700 MFI and 17300 MFI.

B8: mAb10971 (antibody)
heavy: EVQLVESGGGLIQPGGSLRLSCAASGVTVSSNYMSWVRQAPGKGLEWVSVIYSGGSTFYSDSVKGRFSISRDNSKNTLYLQMNSLRAEDTAVYYCARDLYYYGMDVWGQGTTVTVSS[human IgG1 constant region left out]
light: DIQLTQSPSFLSASVGDRVTITCRASQGISTYLAWYQQKPGKAPKLLIYAASTLQSGVPSRFSGSGSGTEFTLTISSLQPEDFATYYCQQLDSYPGLTFGGGTKVEIKRTVAAPSVFIFPPSDEQLKSGTASVVCLLNNFYPREAKVQWKVDNALQSGNSQESVTEQDSKDSTYSLSSTLTLSKADYEKHKVYACEVTHQGLSSPVTKSFNRGEC
Turning to B8, the MFI was 29400 MFI and 28800 MFI.
